From the supplement of paper PMC10369915
The other results are listed elsewhere or left out. Cut-off read from the data, not from the text of the source: active = 3.2 or more and inactive = the rest. The signal is at background level for most entries.

B1: GATM_Y227 (peptide)
chain: LYNQDYPIHSV
B2: GATM_Y227_S231C (peptide)
chain: LYNQDYPIHCV
B3: GATM_Y227_S231C_YF (peptide)
chain: LFNQDYPIHCV
B4: GATM_Y227_YF (peptide)
chain: LFNQDYPIHSV
B5: GBA_Y244_G241E (peptide)
chain: QPEDIYHQTWA
B6: GBA_Y244_Y244C (peptide)
chain: QPGDICHQTWA
B7: GBA_Y412_V414L (peptide)
chain: ITNLLYHLVGW
B8: GBA_Y451_P454R (peptide)
chain: TKDTFYKQRMF
B9: GBP6_Y333_A331S (peptide)
chain: QRASDYYSQQM
B10: GBP6_Y333_YF (peptide)
chain: QRAADYFSQQM
B11: GCH1_Y175_Q180R (peptide)
chain: RIVEIYSRRLR
B12: GCK_Y413_H416P (peptide)
chain: VDGSVYKLPPS
B13: GCLC_Y53 (peptide)
chain: GDEVEYMLVSF
B14: GCNT3_Y267 (peptide)
chain: ETRWKYHFEVV
B15: GDAP2_Y487_T489A (peptide)
chain: RENGPYYASYP
B16: GDAP2_Y488_T489A (peptide)
chain: ENGPYYASYPP
B17: GDAP2_Y488_YF (peptide)
chain: ENGPFYTSFPP
B18: GDNF_Y156 (peptide)
chain: AAETTYDKILK

Molecular target: SHP2 C-SH2 domain E139D
Test: enrichment score (SH2-bound / input frequency) (ratio); bacterial display of known human phosphotyrosine sites (pTyr-Var adds point mutants) read by sequencing; higher = stronger binding; tyrosines were phosphorylated by kinases first
Conditions: peptide library: pTyr-Var
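Note: displayed peptides selected on beads carrying the immobilized SH2 domain, with library peptides lacking any tyrosine serving as negative controls.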

Enrichment score, active:
B7 4.26

Enrichment score, inactive:
B1 0.941
B2 0.78
B3 1.28
B4 0.847
B5 0.943
B6 0.914
B8 0.536
B9 0.529
B10 1.04
B11 0.229
B12 0.598
B13 0.513
B14 0.791
B15 0.609
B16 0.675
B17 0.673
B18 1.28

Molecular target: SHP2 C-SH2 domain wild-type
Test: as above
Conditions: peptide library: pTyr-Var

Enrichment score, active:
B7 3.64

Enrichment score, inactive:
B1 0.86
B2 1.17
B3 1.25
B4 0.647
B5 0.802
B6 1.27
B8 0.575
B9 0.409
B10 0.849
B11 0.225
B12 0.644
B13 0.39
B14 1.2
B15 0.803
B16 0.488
B17 0.806
B18 1.27

Molecular target: SHP2 N-SH2 domain L43F
Test: as above
Conditions: peptide library: pTyr-Var

Enrichment score, inactive:
B1 1.03
B2 0.975
B3 1.78
B4 0.655
B5 1.1
B6 1
B7 2.98
B8 0.589
B9 0.404
B10 0.641
B11 0.187
B12 0.712
B13 0.45
B14 0.939
B15 0.542
B16 0.575
B17 0.68
B18 0.801

Molecular target: SHP2 N-SH2 domain T42A
Test: as above
Conditions: peptide library: pTyr-Var

Enrichment score, inactive:
B1 0.746
B2 0.84
B3 0.706
B4 1.16
B5 0.909
B6 1.15
B7 3.16
B8 0.617
B9 0.388
B10 0.733
B11 0.241
B12 0.572
B13 0.431
B14 0.718
B15 0.46
B16 0.586
B17 0.603
B18 0.823

Molecular target: SHP2 N-SH2 domain T52S
Test: as above
Conditions: peptide library: pTyr-Var

Enrichment score, inactive:
B1 0.739
B2 0.822
B3 1.09
B4 1.1
B5 1.32
B6 1.21
B8 0.517
B9 0.424
B10 0.612
B11 0.237
B12 0.56
B13 0.449
B14 1
B15 0.544
B16 0.489
B17 0.854
B18 0.708

Enrichment score, active:
B7 4.34

Molecular target: SHP2 N-SH2 domain wild-type
Test: as above
Conditions: peptide library: pTyr-Var

Enrichment score, active:
B7 3.26

Enrichment score, inactive:
B1 0.982
B2 1.06
B3 1.18
B4 1.79
B5 0.807
B6 1.47
B8 0.682
B9 0.444
B10 0.859
B11 0.276
B12 0.532
B13 0.62
B14 1.23
B15 0.847
B16 0.648
B17 1.04
B18 1.23
